# Assay results reported in article PMC4336329 (PLoS ONE, 2015).
# In all, about 310,000 compounds went through this assay and about 14,000 (4.5%) showed an effect of 50% or more. The effect is printed as a negative number. This is one part of the list.
# Molecular target: human ether-à-go-go-related gene (hERG) potassium channel (human, UniProt Q12809)
# Assay: primary screen, population patch clamp on CHO cells stably expressing hERG
# 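Note: peak tail current of the secondary pulse compared with the same well before compound.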
# Sequence of human ether-à-go-go-related gene (hERG) potassium channel (Q12809 whole entry, looked up): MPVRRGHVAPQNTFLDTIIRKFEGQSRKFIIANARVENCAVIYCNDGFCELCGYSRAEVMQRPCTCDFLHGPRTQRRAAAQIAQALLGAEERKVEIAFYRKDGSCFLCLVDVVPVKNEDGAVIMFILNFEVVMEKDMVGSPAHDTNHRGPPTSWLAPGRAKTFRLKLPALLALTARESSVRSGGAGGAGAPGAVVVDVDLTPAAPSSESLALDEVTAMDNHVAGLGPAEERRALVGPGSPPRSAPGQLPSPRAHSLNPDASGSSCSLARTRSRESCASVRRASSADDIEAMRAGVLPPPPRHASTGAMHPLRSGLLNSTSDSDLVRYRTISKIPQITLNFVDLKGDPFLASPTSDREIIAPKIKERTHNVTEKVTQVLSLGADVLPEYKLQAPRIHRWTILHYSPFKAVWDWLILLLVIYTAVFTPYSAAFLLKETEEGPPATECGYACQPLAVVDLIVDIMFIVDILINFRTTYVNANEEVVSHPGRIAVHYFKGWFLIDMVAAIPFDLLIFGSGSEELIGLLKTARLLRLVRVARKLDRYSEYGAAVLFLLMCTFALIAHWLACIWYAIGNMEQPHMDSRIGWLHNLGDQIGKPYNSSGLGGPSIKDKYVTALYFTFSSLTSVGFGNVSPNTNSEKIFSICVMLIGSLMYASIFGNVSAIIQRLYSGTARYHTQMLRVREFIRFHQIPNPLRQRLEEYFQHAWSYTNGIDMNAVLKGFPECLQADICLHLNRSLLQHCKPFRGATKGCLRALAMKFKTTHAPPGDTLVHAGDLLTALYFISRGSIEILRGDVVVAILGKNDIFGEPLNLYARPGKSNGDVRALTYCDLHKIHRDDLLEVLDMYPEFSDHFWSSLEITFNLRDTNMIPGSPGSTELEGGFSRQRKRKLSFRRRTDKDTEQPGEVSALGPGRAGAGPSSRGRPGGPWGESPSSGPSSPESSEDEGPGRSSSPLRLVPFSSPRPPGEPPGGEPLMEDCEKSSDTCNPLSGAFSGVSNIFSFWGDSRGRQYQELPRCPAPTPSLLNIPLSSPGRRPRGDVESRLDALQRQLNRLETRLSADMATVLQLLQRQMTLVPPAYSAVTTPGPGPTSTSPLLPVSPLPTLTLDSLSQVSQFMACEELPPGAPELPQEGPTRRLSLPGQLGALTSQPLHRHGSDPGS
row,Structure (SMILES),"hERG current change (%, negative = inhibition) at 10uM [%]"
1,Cc1ccc(/C=C(\C#N)C(=O)Nc2cccc(C)n2)cc1,12.6
2,CCSC1(SCC)N=C(N)C2(C#N)C(c3ccccc3)NC(C)=CC12C#N (stereo not shown),19.8
3,COCCN(CCOC)S(=O)(=O)c1ccc(/C(O)=C(\C#N)c2nc3ccccc3[nH]2)cc1,16
4,O=C(CC1CCCCC1)OCn1nnc2ccccc2c1=O,-33.2
5,Cc1cc(=O)[nH]c(/N=C(\N)Nc2cccc3ccccc23)n1,11.5
6,COc1ccc(-c2cc(C(=O)NC(Cc3c[nH]c4ccccc34)C(=O)O)c(C)o2)cc1OC (stereo not shown),50.7
7,CCOC(=O)C1CCN(S(=O)(=O)c2ccc(OC)c(C(=O)N3CCCCC3)c2)CC1,12.5
8,Cc1cccc(NC(=S)N(CCCN2CCOCC2)C(C)c2cc3ccccc3o2)c1 (stereo not shown),-38.8
9,CCOC(=O)c1sc(NC(=O)COC(=O)CNC(=O)C2CCCCC2)c(C(=O)OCC)c1C,12
10,COCCCN1C(=O)C2C(C(=O)Nc3cc(C)cc(C)c3)C3C=CC2(O3)C1C(=O)NC1CCCCC1 (stereo not shown),1.58
11,C/C(=N\NC(=O)c1ccccc1Cl)c1c(O)n(C2CCCCC2)c(=O)[nH]c1=O,15.1
12,O=S(=O)(Nc1nc(CN2CCOCC2)nc2sc3c(c12)CCCC3)c1cc(F)ccc1F,-34.9
13,Cc1cc(=O)n2nc(-c3ccccc3)sc2c1C#N,-2.19
14,COc1ccc(Cl)cc1NC(=O)CCNC(=O)Cn1ccc2ccccc2c1=O,16.9
15,COC(=O)CCSCc1cn2cc(Cl)ccc2n1,17.7
16,CCOC(=O)C1(Cc2ccc(OC)cc2)CCN(C(=O)CN2CCCCC2=O)CC1,4.53
17,COc1ccc(CCNC(=O)CC2SC(=Nc3cc(C)cc(C)c3)NC2=O)cc1OC (stereo not shown),24.2
18,CCc1ccc(/C=N/NC(=O)c2cc(C)on2)s1,-15.5
19,COc1ccc(C2=NN(C(=O)CCC(=O)O)C(c3ccc(OC)c(OC)c3)C2)cc1 (stereo not shown),5.63
20,O=C(CCC(=O)c1ccc(Oc2ccccc2)cc1)Nc1ccc(C(=O)O)cc1,21.8
21,CCOC(=O)c1cn2nc(N3CCCC3)ccc2n1,1.32
22,O=C(Nc1cccc(Cl)c1)c1cc(F)cc2c1OCOC2,13.4

row,Structure (SMILES),"hERG current change (%, negative = inhibition) at 10uM [%]"
1,COc1cccc(Oc2c(C)oc3c(CN4CCCC4)c(O)ccc3c2=O)c1,2.05
2,Cc1ccc(N2CCN(S(=O)(=O)c3ccc4c(c3)NC(=O)C(C)C(=O)N4)CC2C)cc1 (stereo not shown),11.7
3,COc1cccc(C(c2nnnn2CCc2ccccc2)N2CCN(c3ccccc3)CC2)c1OC (stereo not shown),-1.31
4,COc1ccc(/C=N/NC(=O)c2cc(C34CC5CC(CC(C5)C3)C4)[nH]n2)cc1O,2.14
5,COc1cccc(NC(=O)c2ccc(OC(F)(F)F)cc2)c1,1.07
6,CCOc1ccc(C2C=C(c3ccccc3)Nc3nnnn32)cc1 (stereo not shown),14.4
7,Cc1ccc2[nH]cc(CCNC(=O)Nc3ccccc3)c2c1,-16.9
8,CS(=O)c1ccccc1COC(=O)Nc1ccc(Cl)cc1 (stereo not shown),-11.5
9,CCCn1nc(C(=O)Nc2ccc3c(c2)OCCO3)c2ccccc2c1=O,-7.37
10,CCOC(=O)c1cc(C)[nH]c1C,6.1
11,CC(C)CN(C(=O)CSc1nnc(-c2ccco2)o1)c1c(N)n(Cc2ccccc2)c(=O)[nH]c1=O,14.4
12,CC1=Nc2ccccc2/C1=C/c1nc(-c2ccc(C)s2)oc1O,16.5
13,CCOc1ccc2nc(Cl)c(CN(C(=O)c3cnccn3)C3CCCC3)cc2c1,-10.5
14,C=CCOC(=O)C1=C(C)NC(=O)NC1c1ccc(N(C)C)cc1 (stereo not shown),3.34
15,Cc1ccccc1OCC(=O)N/N=C/c1ccccn1,11.3
16,COc1cccc2sc(=NC(=O)CS(=O)(=O)c3ccc(Cl)cc3)n(C)c12,-60.8
17,NC(=S)NNc1ccnc2cc(Cl)ccc12,5.52
18,Fc1ccccc1CN1CCN(c2ncccn2)CC1,5.66
19,COC(=O)C1CCN(C(=O)NC(C)(C)C)CC1,11.2
20,CC(C)C(NC(=O)c1ccc(F)cc1)C(=O)OCC(=O)N1CC(=O)Nc2ccccc21 (stereo not shown),-14.9
21,COc1ccc(Nc2nc(NC(C)(C)C)nc(N3CCCC3)n2)c(OC)c1,14
